According to PubChem BioAssay AID1745853 (National Center for Advancing Translational Sciences (NCATS), 2022):
“And” between values parts separate entries of the source, which are not always exact repeats. Identical values can stand only once. The list shows a part of the results. Shown are side measurements of this screen, not its main read-out; they come without a call.

Experiments:
Assay in all cases: Primary Screen for Target Class Profiling of Small Molecule Inhibitors of Methyltransferases
[1] = target: Glycine N-methyltransferase (Homo sapiens) (UniProt Q14749); conditions: purified enzyme, MTase-Glo SAH luminescence; measured here: GNMT inhibition; at 40 µM; stronger effect = lower value
Summary of the method: (§1)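 Each enzyme was reacted with SAM and its substrate, with compounds tested once at 40 uM; SAH formed was read by MTase-Glo luminescence.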

[2] = target: Guanidinoacetate N-methyltransferase (Homo sapiens) (UniProt Q14353); conditions: purified enzyme, MTase-Glo SAH luminescence; measured here: GAMT inhibition; at 40 µM; stronger effect = lower value
Summary of the method: as §1

[3] = target: Histamine N-methyltransferase (Homo sapiens) (UniProt P50135); conditions: purified enzyme, MTase-Glo SAH luminescence; measured here: HNMT inhibition; at 40 µM; stronger effect = lower value
Summary of the method: as §1

[4] = target: Nicotinamide N-methyltransferase (Homo sapiens) (UniProt P40261); conditions: purified enzyme, MTase-Glo SAH luminescence; measured here: NNMT inhibition; at 40 µM; stronger effect = lower value
Summary of the method: as §1

[5] = target: Phenylethanolamine N-methyltransferase (Homo sapiens) (UniProt P11086); conditions: purified enzyme, MTase-Glo SAH luminescence; measured here: PNMT inhibition; at 40 µM; stronger effect = lower value
Summary of the method: as §1
% is set by controls: 0 for no effect and ±100 for the full control effect.

Compound | activity change, negative = inhibition [1] [%] | activity change, negative = inhibition [2] | activity change, negative = inhibition [3] [%] | activity change, negative = inhibition [4] | activity change, negative = inhibition [5]
CN1CCN(c2ccc(OC(F)(F)F)c(Nc3ncc4c(n3)-c3c(c(C(N)=O)nn3CCO)CC4)c2)CC1 | -7.3 | -0.027% | -2.11 | -18.6% | 4.95%
O=C(NCCNC(=O)c1cccc(-c2ccsc2)c1)NC1CCCC1 | -6.41 | -0.578% | -0.397 | -8.37% | -4.24%
COc1ccc(C)cc1NS(=O)(=O)c1ccc2[nH]c3c(c2c1)CCCC3 | -2.37 | 0.489% | -3.91 | -12.9% | -2.88%
Fc1ccc([C@@H]2CCNC[C@H]2COc2ccc3c(c2)OCO3)cc1 | 4.76 | 12.4% and 7.08% | 10.8 | -10.2% and -16.2% | 1.76% and 2.74%
NC(=O)C1CCN(C(=O)CCc2nnc3n(CCc4ccccc4)c(=O)c4ccccc4n23)CC1 | -6.84 | 1.62% | 2.81 | 7.85% | -3.39%
CCOC(=O)c1cc2n(n1)CC(C)(C(=O)NC1CCCC1)N(c1cc(C)ccc1C)C2=O (configuration not stated) | 4.44 | 5.03% | -5.37 | 3.79% | 4.35%
Cc1ccc(C)c(N2CCN(CCCNC(=O)CCc3nnc4n(CC(C)C)c(=O)c5ccccc5n34)CC2)c1 | -6.66 | 3.62% | -5.7 | -3.28% | -1.45%
CC(=O)c1ccc(Nc2nc3c(S(=O)(=O)c4ccc(C)c(C)c4)nnn3c3ccc(Cl)cc23)cc1 | -6.88 | 3.24% | 1.72 | -0.727% | -4.97%
CC1CC(C)CN(S(=O)(=O)c2ccc3c(c2)oc(=O)n3CC(=O)NC2CCCCC2)C1 (configuration not stated) | -5.63 | 0% | -5.19 | -15.3% | -10.1%
O=C(CSc1nnc2n(Cc3ccccc3)c(=O)c3ccccc3n12)Nc1ccc(Cl)cc1 | -2.97 | 3.41% | -1.25 | -0.953% | -1.87%
CN1C(=O)c2cc(C(=O)NCCc3cccs3)nn2CC1(C)C(=O)NC1CCCCCC1 (configuration not stated) | -1.76 | 8.82% | -1.79 | 1.42% | -4.12%
CC(=O)Nc1c2n(c3ccc(F)cc13)CC(C)(C(=O)NC1CCCC1)N(c1ccc(F)cc1)C2=O (configuration not stated) | 1.5 | 0% | 1.45 | 6.2% | -4.84%
Cc1coc2c1C(=O)C(=O)c1c-2ccc2c(C)cccc12 | -23.8 | -6.1% | -1.48 | -21.8% | -13.4%
CCCN1C(=O)c2c(C(=O)NCc3ccc(OC)cc3)ncn2CC1(C)C(=O)NCc1ccc(F)cc1 (configuration not stated) | 2.96 | 0% | -0.492 | 4.67% | 6.97%
O=S(=O)(NC[C@@H]1CCNC[C@H]1O)c1ccc(OC(F)(F)F)cc1 | -8.83 | -7.42% | -3.49 | -5.81% | -3.71%
Cn1cc(-c2cnn3c(N)c(Br)c(C4CCCNC4)nc23)cn1 (configuration not stated) | -10.1 | – | -81.4 | – | –
COc1ccc(-c2cc3c(C)nc(N)nc3n(C3CCC(OCCO)CC3)c2=O)cn1 (configuration not stated) | -0.891 | -2.44% | 3.29 | -13.5% | 1.4%
CCn1ccn2c(-c3ccccc3)nc(C)c2c1=O | -3.03 | -0.049% | -3.25 | -7.5% | -1.19%
O=C1CC(c2ccccc2)N(C(=O)CNC(=O)c2n[nH]c3ccccc23)CCCCCCN1 (configuration not stated) | -5.35 | -0.355% | 0.498 | -5.39% | -1.85%
